Measurements published in paper PMC9574860, “Chemical Toolkit for PARK7: Potent, Selective, and High-Throughput” (Journal of Medicinal Chemistry, 2022).
About 400 (5.1%) of roughly 7,900 compounds showed an effect of 50% or more. This is one part of the list.

target: Parkinson's disease protein 7 (PARK7/DJ1) (human, UniProt Q99497); assay: primary screen, percent inhibition; read as competition with a fluorescent probe by fluorescence polarization; higher = more effect of the substance; conditions: 100 µM
How it was run: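 Covalent fragments at 100 μM final were incubated 2 h with 0.2 μM PARK7, then 20 nM probe JYQ-107 added for a further 2 h. Fluorescence polarization read at 480/520 nm; relative FP loss versus reference controls gave remaining enzyme activity.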

Sequence of Parkinson's disease protein 7 (PARK7/DJ1) (Q99497 whole entry, looked up, the tested form may be a part): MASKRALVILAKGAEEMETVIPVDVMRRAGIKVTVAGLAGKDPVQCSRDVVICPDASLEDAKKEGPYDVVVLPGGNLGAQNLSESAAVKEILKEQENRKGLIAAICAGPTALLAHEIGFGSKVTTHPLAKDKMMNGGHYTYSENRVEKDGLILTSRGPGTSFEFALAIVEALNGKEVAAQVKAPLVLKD

Structure (SMILES) | Inhibition %
CC(C)NC(=O)C(C#N)=Cc1ccc(F)cc1 | 8.01%
C=CC(=O)NCc1cnn2ccccc12 | 19.8%
Cl.ClCC1CCCCCN1 (stereo not shown) | 0.798%
CC(=O)NC(C)c1ccc(C(=O)CCl)cc1 (stereo not shown) | 38.2%
O=C(CCc1ccc(S(=O)(=O)F)cc1)N1CCCCC1 | 12.4%
O=C(CCl)NC1CCOCC1 | 10.5%
C=CC(=O)NC[C@H]1CC(c2nnc(C)[nH]2)C[C@H]1O (stereo partly shown) | 16.8%
Clc1ccc2c(c1)C1OC1C2 (stereo not shown) | 10.7%
COc1nc(C#N)sc1C | 2.94%
Cl.O=C(CCl)N1CCN(CC(=O)N2CCCC2)CC1 | 2.27%
CN(C(=O)Cn1cnc(C#N)n1)C1CCCCC1 | 6.19%
CC1(C)OB(c2ccc(OCC(F)F)cc2F)OC1(C)C | 2.02%
COc1ccc(S(=O)(=O)F)cc1O | 54%
CC(NC(=O)CCl)C(c1ccccc1)N1CCOCC1.Cl (stereo not shown) | 10.7%
C=CC(=O)N(C)C1CCCc2c1cnn2C (stereo not shown) | 11%
Cc1ccc(OC2CCCC2)c(B(O)O)c1 | 2.59%
C=CC(=O)NCCc1cn2c(n1)SCC2 | 13.4%
CCc1ccc(S(=O)(=O)n2cc(C)nc2CC)cc1 | 6.17%
O=C(CCl)Nc1cccc(C(=O)N2CCSCC2)c1 | 6.3%
C=CC(=O)Nc1ccccc1C | 4.88%
COc1ccc2nc(C#N)ccc2c1 | 3.18%
Cc1cccc(NC(=O)C(C#N)=Cc2ccco2)c1 | 15.3%
COc1cc(OC)c(OC)cc1CS | 63.9%
COc1ccc2ccccc2c1C=C(C#N)C(N)=O | 13.5%
Cc1ccc(C=CS(=O)(=O)Nc2ccnn2C(C)C)cc1 | 13%
C#CC(=O)CCc1ccccc1 | 14.6%
Cc1ccc(N(C(=O)CCl)C2C=CS(=O)(=O)C2)cc1C (stereo not shown) | 5.05%

Structure (SMILES) | Inhibition %
COc1ccc(NC(=O)c2ccccc2NC(=O)CCl)cc1 | 2.88%
CCC1c2ccsc2CCN1C(=O)CCl (stereo not shown) | 14.7%
CN(C)CCn1c(S)nc2ccsc2c1=O | 4.97%
C=CC(=O)Nc1cc(-c2ccnn2C)ccc1C | 6.59%
CC(CCO)NC(=O)c1cccnc1S (stereo not shown) | 9.53%
Cc1ccc(C(=O)N2CCCCC2C2OCCO2)cc1F (stereo not shown) | 7.53%
CC(C)c1nn(C)c(Cl)c1C=C(C#N)C(=O)O | 15%
C=CC(=O)N1CCN(C(=O)C2CC2)CC1(C)C | 7.47%
O=S(=O)(F)c1ccc(-c2cn([C@@H]3CC[C@H]3O)nn2)cc1 (racemic) | 34.3%
C=CC(=O)NC1CC2(CC2)C1 | 7.25%
CCN(c1ccc(NC(=O)CCl)cc1)C(C)C.Cl | 98.6%
Cc1ccn(S(=O)(=O)c2cc(C)c(C)cc2C)n1 | 12%
CC1OB(O)c2cc(CO)c(F)cc21 (stereo not shown) | 1.93%
N#CC(=Cc1ccc(Cl)cc1Cl)C(N)=O | 3.78%
C=CC(=O)N1CC2CCCC2C1C(N)=O (stereo not shown) | 2.15%
NC(=O)Cc1cc(=O)[nH]c(S)n1 | 52.6%
CC(Nc1ccc(C#N)nc1)C(O)c1ccc(F)cc1 (stereo not shown) | 6.52%
Cl.Cn1ncc2ncc(B3OC(C)(C)C(C)(C)O3)cc21 | 29.1%
CC1CC(Sc2nccc(C(F)(F)F)n2)C(=O)O1 (stereo not shown) | 3.32%
C=CC(=O)N1CCOC(COc2ccc(F)c(F)c2)C1 (stereo not shown) | 1.27%
CS(=O)(=O)OC1CCOC2(CCOCC2)C1 (stereo not shown) | 9.05%
Cc1ccc(S(=O)(=O)OC2C=CS(=O)(=O)C2)cc1 (stereo not shown) | 4.24%
N#Cc1nc(-c2ccc(Cl)cc2Cl)oc1N | -2.51%
C#CCNC(=O)CNc1ccc(Cl)c(C#N)n1 | 2.84%
C=CC(=O)NC(C)CN1CCCC(C)C1 (stereo not shown) | 2.15%
O=C(Cn1c(-c2ccccc2)noc1=O)N1CCCC1 | 0.898%
C=CC(=O)N1CC(C)(C)C1c1nccn1CC1CC1 (stereo not shown) | 13.4%

Structure (SMILES) | Inhibition %
C=CC(=O)N1CCOC(CCF)C1 (stereo not shown) | 7.61%
Cc1nccn1S(=O)(=O)c1ccc(C(C)(C)C)cc1 | 0.878%
O=C1SCCN1CC(=O)N1CCOc2ccccc21 | 2.45%
COCOc1ccc(C#N)cc1B1OC(C)(C)C(C)(C)O1 | 4.19%
OB(O)c1cccc(-c2cc[nH]n2)c1 | 3.3%
O=C(Nc1ccn(CC(F)(F)F)n1)c1cccnc1S | 5.34%
N#Cc1ncccc1C(=O)O | 8.09%
C=CC(=O)N1CCSc2c1c(C)nn2C | 19.9%
O=C(CCl)NC(c1ccccc1)c1nccs1 (stereo not shown) | 18.1%
Cc1cc(=O)oc2cc(OCC3CO3)ccc12 (stereo not shown) | 7.44%
N#CN(Cc1nnc(C2CCC2)o1)c1ccc(F)c(Cl)c1 | -0.412%
CCOc1ccc(C(=O)CCl)cc1 | 84.9%
C=CC(=O)NC1C(C)C(OC)C12CCC2 (stereo not shown) | 50%
COc1ccc2nc(SC3CC(C)OC3=O)[nH]c2c1 (stereo not shown) | 6.64%
O=C(c1cccnc1S)N1CCC(n2cccn2)CC1 | 14.1%
Cn1cnc2ccc(S(=O)(=O)F)cc21 | 43.4%
Cl.O=C(CCl)NCC(c1ccccc1Cl)N1CCCC1 (stereo not shown) | 3.25%
Sc1ncnc2ncncc12 | 6.65%
C#CCN1CCN(c2oc(-c3ccco3)nc2C#N)CC1 | 53.7%
C=CC(=O)NCCc1cn(C)nn1 | 10.4%
C1COCCN1.Cc1cc(=O)[nH]c(S)c1C#N | 8.07%
C=CC(=O)NCCc1nc(-c2ccc(F)cc2)c[nH]1 | 6.03%
O=S(=O)(F)CCN1CCSc2ccccc21 | 2.53%
CCOc1ccc(S(=O)(=O)n2nc(C)cc2C)c(C)c1C | 7.32%
COc1ccc(Cl)cc1NC(=O)CCl | 14.9%
